# PubChem BioAssay AID488969 (Vanderbilt High Throughput Screening Facility, 2010)
# In all, about 110,000 compounds were measured (“z-score”: median about -0.1, highest 2% from about 2 on). Some of the results follow. Active and inactive are the calls of the source.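 Rule for the calls: active = z-score in the third read window above 3 or below -3; inactive = the rest.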
# Target: Metabotropic glutamate receptor 8 (Rattus norvegicus) (UniProt P70579)
# Test: rat mGluR8 modulators via GIRK flux, primary screen, cell-based, thallium flux, HTS (AID 488969)
# Conditions: HEK293 rat mGluR8, GIRK (G protein-gated inwardly rectifying potassium channel) thallium flux, FluoZin2; at 10 µM; stronger effect = higher value; submaximal glutamate (EC20) added with thallium
# Chain of UniProt P70579 (P70579 whole entry, looked up): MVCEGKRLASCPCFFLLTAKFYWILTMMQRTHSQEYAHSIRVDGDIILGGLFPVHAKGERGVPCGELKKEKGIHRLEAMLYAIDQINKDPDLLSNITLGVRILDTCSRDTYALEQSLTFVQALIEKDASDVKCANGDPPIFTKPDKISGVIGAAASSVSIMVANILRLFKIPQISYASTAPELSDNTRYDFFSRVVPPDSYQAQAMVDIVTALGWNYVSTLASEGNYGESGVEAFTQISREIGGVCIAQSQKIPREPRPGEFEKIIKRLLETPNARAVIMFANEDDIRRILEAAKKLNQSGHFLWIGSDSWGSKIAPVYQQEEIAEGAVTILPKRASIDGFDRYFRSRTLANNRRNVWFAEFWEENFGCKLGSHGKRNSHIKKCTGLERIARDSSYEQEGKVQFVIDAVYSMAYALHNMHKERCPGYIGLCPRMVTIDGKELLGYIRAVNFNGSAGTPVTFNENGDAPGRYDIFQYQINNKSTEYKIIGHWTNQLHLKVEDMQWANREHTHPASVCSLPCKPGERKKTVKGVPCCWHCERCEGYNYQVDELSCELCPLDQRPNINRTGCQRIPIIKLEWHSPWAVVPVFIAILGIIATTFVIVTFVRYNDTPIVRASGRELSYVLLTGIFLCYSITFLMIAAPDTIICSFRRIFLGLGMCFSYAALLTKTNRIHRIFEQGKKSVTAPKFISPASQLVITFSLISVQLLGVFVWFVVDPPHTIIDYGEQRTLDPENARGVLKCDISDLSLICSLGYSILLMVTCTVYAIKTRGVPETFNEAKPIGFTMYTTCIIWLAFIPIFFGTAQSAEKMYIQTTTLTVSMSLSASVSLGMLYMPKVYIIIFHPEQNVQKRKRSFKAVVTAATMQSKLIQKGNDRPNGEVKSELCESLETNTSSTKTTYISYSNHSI
row,SMILES,z-score
1,O=C(CNc1cccc2ccccc12)N/N=C/c1ccc([N+](=O)[O-])cc1,1.86
2,CON(C)c1nc(OCCNC(=O)COc2ccc(Cl)cc2C)nc(N(C)C)n1,0.98
3,CCc1nnc(NC(=O)CSc2nnc(Cc3cccn3C)n2CCOC)s1,-0.0814
4,O=C1c2cccc(OCC(=O)N3N=C(c4cccs4)CC3c3ccc(F)cc3)c2CCN1Cc1ccccc1 (centres undefined),-0.0715
5,COC(=O)CNC(=O)CNC(=O)Nc1ccccc1Cl,-0.0464
6,CC1CCCN(C(C(=O)NC2CCCCC2)c2cc3c(cc2[N+](=O)[O-])OCO3)C1 (centres undefined),-0.149
7,CN(CC(O)CON=C1c2ccccc2-c2ccccc21)S(=O)(=O)c1ccc(Br)cc1 (centres undefined),-0.0439
8,CC1CCCN(C(=O)C2CCN(CC(C)c3ccccc3)CC2)C1 (centres undefined),-0.276
9,O=S(=O)(c1ccccc1)c1nc(-c2ccco2)oc1NCc1ccco1,-0.338
10,O=C1c2ccccc2C(=O)N1CC1c2ccccc2CCN1C(=O)N1CCOCC1 (centres undefined),0.611
11,CCN(c1ccc(OC)cc1)c1ncnc2nc[nH]c12,-0.267
12,Cc1ccc(NC(=O)CN(C)C(=O)Cn2cc(C(F)(F)F)cc(Cl)c2=O)cc1,-0.0337
13,Nn1cnnc1N/N=C/c1cc([N+](=O)[O-])c(Cl)cc1Cl,-0.3
14,Cc1ccc(C(=O)Nn2c(N)c(S(=O)(=O)c3ccc(C)cc3)c3nc4ccccc4nc32)cc1,0.0666
15,CCOc1ccccc1Nc1nc(-c2sc(NC(=O)c3ccc([N+](=O)[O-])cc3)nc2C)cs1,0.209
16,Cc1ccc(OCc2n[nH]c(=S)n2C2CCCCC2)cc1,-1.04
17,O=C(Nc1nnc(C(F)(F)F)s1)C1COc2ccccc2O1 (centres undefined),-0.109
18,Cc1csc(NC(=O)C2CCCN(S(=O)(=O)c3cccnc3)C2)n1 (centres undefined),0.169
19,Cn1c(SCC(=O)c2ccc3c(c2)Cc2ccccc2-3)nnc1-c1cccc(N)c1,-0.227
20,Cc1ccc(Cn2c(SCC(=O)N3CC(=O)Nc4ccccc43)nc3ccccc3c2=O)cc1,1.31
21,Cc1ccc(OCCCCNC(C)(C)C)c([N+](=O)[O-])c1,-0.262
22,O=C(Cn1ncc2ccccc21)N1CCN(c2cccc(C(F)(F)F)c2)CC1,-0.0256

row,SMILES,z-score
1,Clc1ccccc1CSc1cc2c(nn1)-c1ccccc1CC2,-0.0174
2,COc1ccc(/C(C)=N/NC(=O)c2ccc(N(C)C)cc2)cc1,-0.494
3,CCc1ccc(NC(=O)c2cc(C(C)C)on2)cc1,0.938
4,COc1ccc(-n2c(-c3ccc(Br)cc3)nc(=S)c3c2CCCC3)cc1,-0.475
5,CCOc1nnc(C)c2c(C)n(-c3cccc(OC)c3)nc12,0.0308
6,COc1cccc(N=c2oc3c(C)ncc(CO)c3cc2C(=O)Nc2ccccc2OC)c1,0.0916
7,CCCNC(=O)NC(C(=O)OC)C12CC3CC(CC(C3)C1)C2 (centres undefined),0.234
8,N#Cc1c(-c2ccco2)nc(SCC(=O)Nc2ccc(S(N)(=O)=O)cc2)[nH]c1=O,-0.14
9,CCc1c(C)sc(NC(=O)CC#N)c1C#N,0.000574
10,COc1ccc(-c2nc(NC(=O)CSc3nnc(C)s3)ns2)cc1,1.21
11,COc1ccc(NC(=O)C(NC(=O)c2ccc(=O)[nH]c2)c2ccccc2)cc1 (centres undefined),-0.0633
12,Cc1ccc(COc2ccc(/C=N/O)cc2)cc1,-0.961
13,CCOC(=O)C1=C(O)CSC1=Nc1cccc2ccccc12,-1.05
14,O=C(Cc1cccs1)NNC(=S)NC(=O)c1ccccc1,0.646
15,COC(=O)NNC(=O)COc1cc(C)ccc1C,0.0705
16,COc1ccc(-n2nnnc2SC(C)C(N)=O)cc1 (centres undefined),0.0936
17,O=C(CN1N=C(C(F)(F)F)CC1(O)c1ccc([N+](=O)[O-])cc1)c1ccccc1 (centres undefined),1.24
18,O=[N+]([O-])c1ccc(-n2nnnc2-c2ccccc2)c([N+](=O)[O-])c1,-0.372
19,CCCc1nnc(NC(=O)CCC(=O)N2CCCCCC2)s1,-1.15
20,CCN(/N=C/c1ccccc1)c1cc(=O)n(C)c(=O)[nH]1,-0.297
21,CCN(CC)S(=O)(=O)c1cc(C(=O)Nc2cc(Cl)ccc2N2CCN(C)CC2)ccc1Cl,0.364
22,Cc1ccc(NC(=O)CN2C(=O)S/C(=C/c3ccc(-c4cc(C(=O)O)ccc4C)o3)C2=O)cc1C,-1.41

row,SMILES,z-score
1,CC1CCN(c2ccccc2NC(=S)NC(=O)c2ccco2)CC1,active: 3.89
2,CCOC(=O)c1sc(NC(=O)Nc2ccccc2Cl)cc1C,-0.499
3,CCSc1nnc(NC(=O)c2ccco2)s1,0.0787
4,O=C(COC(=O)CC1CC2CCC1C2)NC(=O)NCc1ccco1 (centres undefined),-0.781
5,CS(=O)(=O)Nc1ccc(N2CCCCC2)c(Cl)c1,0.507
6,CCOC(=O)/C=c1\s/c(=C\c2ccccc2OC)c(=O)n1CC(=O)N1CCOCC1,0.423
7,C=CCc1ccc(OCC(O)CO)c(OC)c1 (centres undefined),-0.508
8,CC1CN(c2oc(-c3ccccc3Cl)nc2C#N)CC(C)O1 (centres undefined),-0.0825
9,CC1=C(C(=O)Nc2ccccc2)C2(CCCCC2)C(C(N)=O)C(=S)N1 (centres undefined),-0.285
10,CN(C)c1ccnc(Oc2ccccc2)c1C#N,-0.184
11,CCn1cc(C(=O)NCC2CCCO2)c(=O)c2cc(S(=O)(=O)N3CCCCCC3)ccc21 (centres undefined),-0.167
12,O=C(Nc1ccc(/C=C/c2nc3ccccc3o2)cc1)c1cccc(C(F)(F)F)c1,-0.18
13,Nc1ncnc(Sc2ccccc2)c1[N+](=O)[O-],-0.174
14,N#C/C(=C\c1ccc(OC(=O)c2ccccn2)cc1)C(N)=O,-0.197
15,Cc1c(NC(=O)C2(c3ccccc3)CCCC2)c(=O)n(-c2ccccc2)n1C,-0.188
16,O=C(NCC(F)(F)F)Nc1nnc(C(F)(F)F)s1,0.0543
17,Clc1ccc2c(N/N=C/c3ccccc3Br)ccnc2c1,-0.0886
18,COCCn1c(NCc2ccccc2)nc2c1c(=O)[nH]c(=O)n2C,0.0776
19,COc1ccc(OC)c2sc(NC(=O)C3CC3)nc12,0.399
20,CN(C)S(=O)(=O)c1ccc(-c2cn3ccccc3n2)cc1,-0.363
21,Cc1cc(NC(=O)c2ccc3c(c2)OCO3)no1,0.871
22,CCNC(=S)Nc1scc(-c2ccccc2)c1C(=O)OCC,active: 6.92

row,SMILES,z-score
1,CCOc1ccc(C(=O)NCCc2ccccc2)cc1,0.0133
2,c1ccc(Cc2nnc3sc(Nc4ccccc4)nn23)cc1,-0.331
3,O=C(O)Cc1sc(-c2ccc(Cl)cc2)nc1-c1ccccc1,-0.396
4,CS(=O)(=O)N(CC(=O)N1CCc2ccccc2C1)Cc1ccccc1,-0.301
5,O=C(N=Nc1c(O)[nH]c2ccc(Cl)cc12)c1cc(-c2cccs2)nc2ccccc12,-0.0899
6,O=C(O)c1ccc(CNCc2c(Cl)cccc2Cl)cc1,0.0291
7,CCOCCCNC(=O)c1ccc(OC(C)=O)cc1,0.0534
8,COc1ccccc1C(NC(=O)C1CCCCC1)c1c(O)ccc2ccccc12 (centres undefined),-0.0917
9,O=C(NCc1cccnc1)c1cc(Sc2cccc(Cl)c2)nc2ccccc12,-1.07
10,COc1ccc(Cc2nn[nH]n2)cc1,-1.61
11,COc1cc(C2N(c3ccc(F)cc3)C(=O)C3CCCN32)cc(OC)c1OC (centres undefined),0.416
12,COc1cc2c(cc1OC)C(c1cccnc1)CC(=O)N2 (centres undefined),-0.295
13,COc1ccc(NS(=O)(=O)c2cccc(-c3nnc(-c4ccccc4)o3)c2)cc1,-0.01
14,Clc1ccc2c(c1)C=Nc1c(NCc3ccccc3)ncnc1O2,-0.39
15,CC1(C)N=C(SCC(=O)Nc2ccc(Cl)cc2)C(c2ccc(Cl)cc2)=N1,-0.255
16,CCC(=O)n1nc(NCc2ccc(OC)c(OC)c2)nc1NCc1ccc(OC)c(OC)c1,-0.465
17,c1ccc2c(N3CCCCC3)nc(N3CCCCC3)nc2c1,-0.832
18,CCOc1ccccc1C(=O)Nc1ccccc1O,-1.3
19,CCC(C)Sc1nc2c(c(=O)[nH]c(=O)n2C)n1CC(O)COc1ccccc1C (centres undefined),-0.162
20,c1ccc(Oc2cc(-c3ccccc3)nc(-c3ccccc3)n2)cc1,-0.104
21,O=C(NNC1=NCCC1)c1cccc(S(=O)(=O)N2CCCC2)c1,-0.0376
22,COC(=O)CSC1=C(C#N)C(c2ccc3c(c2)OCO3)C2=C(CCCC2=O)N1 (centres undefined),-0.503

row,SMILES,z-score
1,O=C(C1CCN(S(=O)(=O)c2cccs2)CC1)N1CCCCCC1,0.139
2,CN(C)S(=O)(=O)c1ccc(Cl)c(NC(=O)COc2ccccc2[N+](=O)[O-])c1,-0.312
3,Cc1cc(C(=O)CSc2nnc(-c3cccnc3)n2-c2ccccc2)c(C)n1CC1CCCO1 (centres undefined),-0.185
4,CN(c1nc(-c2ccccc2)cs1)C1CCS(=O)(=O)C1 (centres undefined),-0.0502
5,COc1ccc(C2CC(c3ccccc3OC(C)=O)=NN2C(=O)/C=C/c2ccccc2)cc1 (centres undefined),-0.18
6,Nc1nonc1C(=O)NCCN=Cc1cc(Cc2ccccc2)cc(Br)c1O,-1.18
7,CCc1nnc(NC(=O)c2cccs2)s1,-0.225
8,COc1ccc(C(=O)OCC(=O)Nc2cc(C)on2)cc1S(=O)(=O)N1CCOCC1,-0.0165
9,CC(=O)Nc1c(S(=O)(=O)c2ccccc2)c2nc3ccccc3nc2n1Cc1ccccc1,-0.16
10,O=C1C2C3C=CC(C3)C2C(=O)N1Cc1ccccc1 (centres undefined),0.0272
11,Cn1ncc(Cl)c1C(=O)Nc1sc2c(c1C(N)=O)CCC2,-0.167
12,O=S(=O)(c1ccc(NC(=S)NCCC(c2ccccc2)c2ccccc2)cc1)N1CCOCC1,0.0723
13,COc1cccc(-n2nnnc2S(C)(=O)=O)c1,-0.44
14,CCNC(=O)NC(=O)C(C)Sc1nc2cc(C(=O)OC)ccc2c(=O)n1-c1ccccc1 (centres undefined),0.204
15,Cc1noc(/C=C/c2ccco2)c1S(=O)(=O)N1CCC(C(=O)Nc2ccc(Cl)cn2)CC1,0.112
16,CCCCn1c(N)c(-c2nc3ccccc3s2)c2c([N+](=O)[O-])nn(C)c(=O)c21,1.31
17,Cc1ccc(-c2nnn3c2nc(NCCc2ccc(S(N)(=O)=O)cc2)c2ccccc23)cc1,-0.0825
18,Cc1ccc(C)c(NC(=O)CNS(=O)(=O)c2ccccc2)c1,-0.144
19,Cc1ccc(N2C(=O)C3C(C(=O)c4ccccc4)=NN(c4ccccc4)C3C2=O)cc1 (centres undefined),-1.78
20,CCOc1ccc(NC(=O)CCN2CCN(c3ccccc3F)CC2)cc1,-0.129
21,CS(=O)(=O)N(CC(=O)N1CCc2ccccc2C1)Cc1ccc(Cl)cc1,0.509
